Test results published in the supplement of paper PMC12632987.
The full ranking holds about 4,500 sequences; the median of “median log2 fold change of GCK-ALFA target abundance (FLAG IP / Myc IP barcode read proportion)” is about 0.078, and the lowest 2% start at about -0.6. Some of the results follow.

B1: GBRAP_184_5269 (protein)
chain: TVRHVELEADTAAAAIAEVRAAAAAARAAGARLRLTLLLRGASVDGVLALLALLGELRAEGVVESATVGVELDATEEEIDTLVAAADAAGVRLVIAIPEE
B2: GBRAP_117_2586 (protein)
chain: SALREEALKEVTALAERIRKALEEKKTLSEEERKELDEKLLEETKELLKKLLSKLSEEEVDEIIEEVLAELDPETYVEFESLLIEAEDKIKEEEEKEKLA
B3: GBRAP_160_4676 (protein)
chain: SEELEELLEEIREILEEAVEMMKGESLEERVAIARVAGGDVILLLEESPIVTDEVVDYADELMDEFVAWIEANPDATEEEIRALAEETLAKIEEEIEKHS
B4: GBRAP_160_4267 (protein)
chain: SPEREKLIKEVEKSRDEILKLADEITPEELKTFAVVELGSHLMEAIDLGLVSDEEEDELAKIIDDLEKELTANKNAPVEVHKEIITEHYDKFIELLKKAK
B5: GBRAP_52_5978 (protein)
chain: MEEEARKIAEELLALMLAGDKEGAKKLIKEIVETKSEEFIELIFEELARLAKTASPEERDAIVELAIMLGDIALEAGFDEAKVDAGEARVAAAAVAALEA
B6: GBRAP_26_5468 (protein)
chain: VDETVRKAIEEIDKVLKELLDPETAAAARTEANTLILEYAEEAKKNANDEEKMEEAKKKAVKEFKEFLDELGVPEDKKEKLVKKFKEELEKIAEAVKKEA
B7: GBRAP_78_6582 (protein)
chain: KVEEELDKAIDALGKAEKLARQLPPEAQEEVLDLLVEASSYLLEAEENGYDLKELEEALKEVEKARELVAKLDHPVAPALLAELDKAEEYLKKAIKLVKE
B8: GBRAP_139_3717 (protein)
chain: SAAEEKIEEAKKIVKEYKDDLKLLAKKLAELISTVDDETALEIARAAAEELKDWSYEKWEEFIELLEKELKELGLDEDTVLAIEGEMEAVMAKHLMAKEK
B9: GBRAP_11_2914 (protein)
chain: KLEKLKEAAKLAKELIETLKKLLKEGTDNEELREKALKLAEELLKLVEENFSEEDAELAKELVEALKKAKEDPANAEEYVKEALAIAQVLLGQALLEIEE
B10: GBRAP_35_5576 (protein)
chain: EDKEMLLETVEDLAEATIEAIKEGDVDLAIALLKAFLRTAKLAVEELENDLEALEKIAELLKKVIEEIKKHLADNPEMQKLLKELEKLLKEVKEKAEKVK
B11: GBRAP_160_4097 (protein)
chain: MEEVEKIIKEIEELAKETFEMIEGENIEERATIVRGLGGDVIMLLFESGKVSDEVEDFADKEFDALVATILANPDLTEEEIKKLIEETVKKVKEKIKEDV
B12: GBRAP_14_3816 (protein)
chain: MEELKKKIKEILEELREELVEEIGLDEEKVKKLIDEALEKIFKALDDPEGPEKKIEEIMDELREKIEELAAELGEDEAAAARALVTDAEYEILELYEESK
B13: GBRAP_160_4685 (protein)
chain: SEKVEEAEEFLEEEFAEVVELFDEVTREELAAFVRVAFGEIILELEELGLLTDEVAEVIDEEEERIVDAILNDPNITKEEFAALLEEAAEEIVEELEEEA
B14: GBRAP_184_5216 (protein)
chain: MLVNRSVEAETAEEAIKKSEEVIEEAKKEGKELNLNVFLKNMSIEEIEKVMTFLSEKKKEGLIKDATVVVEDPVSEEELDKLIKIADENGIRLVAALKDE
B15: GBRAP_35_5534 (protein)
chain: ESDLEIAEMLVDTMEDLVEALPDVSPEEKIKLARHIIDLAEDIVKLKPKDKELIEKAIEILEEAIEIIKKSDLPEEEKEELIKRLEEQKKKLEELLKENE
B16: GBRAP_52_6352 (protein)
chain: MEEKARATARELVALAQAGDEAALEARAKEIAETWSEEEIELLFRELARLARTADPATAEAILRVAEVLADALIEAGWDEYFASYLLAEVDKAVYENLQR
B17: GBRAP_52_5916 (protein)
chain: MEEEIKKIAEEILNAAIAGDEEGMKALIKEAVEKLNTEELKKLIKTLAELTAEKGPEYYDIFAKIMDILEDEVEEAGKDVEEIQYAIAEGFGLLYKAEQA
B18: GBRAP_125_2976 (protein)
chain: SKEELLEDLATVARALGFSDDDVAEAVELAGRFSVKGTLYAMMKALGYEELAELVEKITEEEAKEVLKEAAAEIRANPDMTPEEVKALLKELAEKAIAKK
B19: GBRAP_186_5389 (protein)
chain: EEEAEEELDKVIDEAEAEGYRVIVSYLENKSLEETKAAIERDADAVAALAEETGERYALIVVVKTKAEDIEELKAHAAELNKRYLARTGVRVRVVVEDSE
B20: GBRAP_52_5868 (protein)
chain: MREELREKLEEMLALVKAGDLEGARALAKELVASISEEEAEVLIEVAAEWAAELAPEDLDAAWTLMEIIAEALEEAGFPEELVTLFEGEVGSAIAKREAA
B21: GBRAP_128_3365 (protein)
chain: VDPEFLAKVKELVDKMIASDVETARELATELVELMSKASLEEQEAAVEIIKENLPKFTVEKLDVLADVIRENRDKLTPEGQNLAADLEVEALNEAEEKEE
B22: GBRAP_35_5510 (protein)
chain: STEETTADMLIATIEDAVLALPDVDVETAAAIARSLARAARELAEELRDDLEALRRLAEELRRLLEAVRKHYGDSPLAKETAEELEEVLREVERLAEEAE
B23: GBRAP_11_2787 (protein)
chain: KKEKLKELAKLLEEAAKLLEKLLAGDPNDEELWKKLEELLKKAKELAKELGLEDVAELLEEAKKDLEKAKADPENRDLYLQNALTHVRVAKGLVLLEIEE
B24: GBRAP_184_5314 (protein)
chain: EVVHHVIEVETPEEARAKLAAIEAEIKASGKKHTVVIFLKNPTKELLDTVMDEIKAMKAAGVDADFIVVIEEPLDEEMTDYAVEKADEAGARVVIALPEE
B25: GBRAP_14_3876 (protein)
chain: MEEIEKVLEEMVKEIVAFVAEVAPEKAPEVKERLEELLKKALEEIKKTGDPLAAFDKMEKEMLEKMEEITADLPEEDRTAILAHLRVELAEARERIDEIL
B26: GBRAP_74_6550 (protein)
chain: MEEKLEEAEKAFENGDYLKAAKILKEILEEKPNEETIKRIQKLIVRLAEKLDELDDEAIEALADAVAELYTNVPDELISDETYRAAARILAAAVAREKAR
B27: GBRAP_52_5958 (protein)
chain: MREKMKKLVEEALELKKEGKEEELEKLLREIAKTLNEEELELLAEEMAERVEESNLEEAEILLDIALRLGDILIEEGRDEGIASYIEARVAAAAYKLEQK
B28: GBRAP_160_4455 (protein)
chain: SERLKKYLEEIDEIREEAKELIEGETHEQRVVIIEGLFGEFLMELVEDERISDEVEDKVAEIIDELIETLRANPDLTEEEIKELIDEAAEKIKEVLKKEL
B29: GBRAP_79_6749 (protein)
chain: GEKEARKALAEALKVVLPELTEEELEKMVEDDEALKAALERAGLSREMADELLEAIKKIPEYAKELFEKAVKRMEGLPAEEKRDILEATVAAVIYEAEKL

target: GABARAP, O95166; assay: median log2 fold change of GCK-ALFA target abundance (FLAG IP / Myc IP barcode read proportion) (log2 ratio); each designed protein is fused to an ALFA-tag nanobody in HEK293 cells to bring the named protein to FLAG-tagged glucokinase (GCK); Myc marks an untargeted standard; higher = target protein stabilised (more abundant); conditions: target protein: 3xFLAG-MCP-GCK-ALFA reporter; HEK293 landing pad (RPLP)
How it was run: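 Binders fused to an ALFA nanobody were recombined as a library into HEK293 landing-pad cells, which were induced with 2 μg mL^−1 doxycycline and then transfected to express a FLAG-tagged target and a Myc-tagged standard. After 48 h, circular RNA barcodes recovered by anti-FLAG and anti-Myc immunoprecipitation of lysates were reverse transcribed, amplified and sequenced. Each binder's target abundance is the median log2 ratio of FLAG to Myc barcode read proportions, from barcodes present at ≥10^−7 in both replicates, binders carrying ≥3 barcodes per replicate, a 10^−6 pseudocount and pooled replicates.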

GABARAP, O95166, sequence (O95166 whole entry, the tested form may be a part): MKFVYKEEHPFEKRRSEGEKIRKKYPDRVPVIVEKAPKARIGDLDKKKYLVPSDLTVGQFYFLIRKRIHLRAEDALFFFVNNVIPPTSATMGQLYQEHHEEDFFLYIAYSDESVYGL

Binder | median log2 fold change
B1 | -0.0951
B2 | 0.281
B3 | -0.366
B4 | -0.0246
B5 | 0.0797
B6 | 0.286
B7 | 0.165
B8 | -0.236
B9 | 0.252
B10 | -1.27
B11 | -0.135
B12 | 0.118
B13 | -0.679
B14 | 0.153
B15 | 0.28
B16 | -0.243
B17 | 0.203
B18 | -0.0567
B19 | 0.0775
B20 | -0.162
B21 | -0.039
B22 | -0.0935
B23 | -0.00588
B24 | 0.0282
B25 | 0.285
B26 | -0.0175
B27 | -0.199
B28 | -0.17
B29 | 0.226
